{
  "source": "PubChem BioAssay AID1346428",
  "about": "(National Center for Advancing Translational Sciences (NCATS), 2018)",
  "note": "Out of some 48,000 compounds screened, about 1,200 (2.5%) were called active. The shares of active, inactive and inconclusive entries below differ from those in the screen.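 The calls were made as follows: active = activation of at least 60% and not above a set upper limit (about 1 call in 100 departs from these limits); inconclusive = activation of 40% to 60%, or above that upper limit; inactive = activation under 40%.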",
  "data": [
    {"target": "Probable G-protein coupled receptor 32 (Homo sapiens) (UniProt O75388)", "sequence (O75388 whole entry, looked up)": "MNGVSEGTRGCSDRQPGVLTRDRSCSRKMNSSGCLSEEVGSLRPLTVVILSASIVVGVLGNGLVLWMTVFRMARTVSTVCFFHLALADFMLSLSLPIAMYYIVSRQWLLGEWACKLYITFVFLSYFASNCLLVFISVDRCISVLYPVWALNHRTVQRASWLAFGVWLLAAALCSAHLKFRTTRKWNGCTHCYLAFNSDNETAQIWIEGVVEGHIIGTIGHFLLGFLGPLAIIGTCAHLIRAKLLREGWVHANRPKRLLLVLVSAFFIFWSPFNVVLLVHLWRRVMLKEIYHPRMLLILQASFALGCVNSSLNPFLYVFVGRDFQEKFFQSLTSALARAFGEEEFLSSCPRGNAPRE", "experiment": "qHTS for Agonists of Human Resolvin D1 Receptor DRV1; also: 0% is about no effect", "settings": "CHO-K1 GPR32 beta-arrestin PathHunter luminescence, 90 min; at 76.9 µM; stronger effect = higher value; zero percent set by DMSO-only wells", "in_short": "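Readings come from a cell-based beta-arrestin complementation format: CHO-K1 GPR32 stable cells (2,500/well) treated 90 min with compounds, then beta-Gal substrate added for 1 h before chemiluminescence imaging.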", "values": [
      {"smiles": "Nc1nc(SCC(=O)Nc2cccc(C(F)(F)F)c2)n[nH]1", "activation": "inactive: 14.6%"},
      {"smiles": "C[C@@H](CN(C)C)CN1c2ccccc2Sc2ccccc21", "activation": "inconclusive: 52.6%"},
      {"smiles": "Cc1n[nH]c(C)c1S(=O)(=O)N1CCCC(C(=O)Nc2ccc(Cl)cc2)C1", "note": "(stereo not given)", "activation": "active: 107%"},
      {"smiles": "Cc1cn([C@H]2C[C@H](F)[C@@H](CO)O2)c(=O)[nH]c1=O", "activation": "inactive: -21.1%"},
      {"smiles": "COc1cccc(C(=O)Nc2ccc(-c3nc4ccccc4s3)cc2Cl)c1", "activation": "inconclusive: 128%"},
      {"smiles": "Cc1cccc(N(CC(=O)NCCSCc2ccc(Cl)cc2)S(C)(=O)=O)c1C", "activation": "inconclusive: 150%"},
      {"smiles": "O=C(C1CCCN(S(=O)(=O)c2cccc3nonc23)C1)N1CCN(c2cccc(Cl)c2)CC1", "note": "(stereo not given)", "activation": "inconclusive: 51.7%"},
      {"smiles": "Cc1ccc(Cn2ccn(CC(=O)Nc3ccccc3C(F)(F)F)c(=O)c2=O)cc1", "activation": "inactive: -14.1%"},
      {"smiles": "CC(=O)Nc1cc(C(=O)Nc2ccc3c(c2)N(C)C(=O)c2ccccc2S3)ccc1C", "activation": "inactive: -7.52%"},
      {"smiles": "O=C(CC1Nc2cccc3cccc(c23)NC1=O)Nc1ccc(F)cc1", "note": "(stereo not given)", "activation": "active: 64.2%"},
      {"smiles": "CCOC(=O)c1ccc(NC(=O)c2cnc(N3CCCC3)nc2C)cc1", "activation": "active: 96.4%"},
      {"smiles": "CCSc1nc2c([nH]c3ccccc32)c(=O)n1-c1ccc(OC)cc1", "activation": "inconclusive: 50.1%"},
      {"smiles": "CC(=O)c1cccc(NC(=O)c2sc3nc4c(cc3c2N)CCCC4)c1", "activation": "inconclusive: 289%"},
      {"smiles": "COc1cccc(C(=O)N2CCC(c3nc4ccccc4s3)CC2)c1", "activation": "active: 95%"},
      {"smiles": "Cc1ccc(Cl)cc1-n1ncc2c(NCCCn3ccnc3)ncnc21", "activation": "inconclusive: 50.1%"},
      {"smiles": "COc1ccc(-c2cn3nc(N4CCC(C(=O)Nc5cccc(OC)c5)CC4)sc3n2)cc1", "activation": "active: 75.8%"},
      {"smiles": "Cc1cc(C)cc(NC(=O)CN(C)S(=O)(=O)c2ccc3[nH]c4c(c3c2)CCCC4)c1", "activation": "inactive: 15.4%"},
      {"smiles": "Cc1n[nH]c(C)c1S(=O)(=O)N(CC(=O)NCc1ccccc1Cl)c1ccc(C(C)C)cc1", "activation": "inconclusive: 59.1%"},
      {"smiles": "CCn1c(=O)cc(OCC(=O)NCc2ccccc2Cl)c2ccccc21", "activation": "active: 71.5%"},
      {"smiles": "Cc1cccc(N(C)C(=O)CN(C)S(=O)(=O)c2ccc3[nH]c4c(c3c2)CCCC4)c1", "activation": "inconclusive: 172%"},
      {"smiles": "Cc1nn(C)cc1CN(C)C(=O)c1cc(-c2ccccc2)nc2ccc(Br)cc12", "activation": "inconclusive: 58.7%"},
      {"smiles": "O=C(CSc1nnc(-c2ccc(Cl)cc2)o1)c1ccc([N+](=O)[O-])cc1", "activation": "inconclusive: 55.6%"},
      {"smiles": "Cc1oc(-c2ccccc2Cl)nc1CS(=O)(=O)CC(=O)NCc1ccc(F)cc1", "activation": "inactive: 14.4%"},
      {"smiles": "Cc1cc(N)c2cc(NC(=O)Nc3ccc4nc(C)cc(N)c4c3)ccc2n1", "activation": "inconclusive: 477%"},
      {"smiles": "COc1ccc(OCc2ccc(-c3nc(C#N)c(NC(C)c4ccccc4)o3)o2)cc1", "note": "(stereo not given)", "activation": "inconclusive: 55%"},
      {"smiles": "Cc1ccc2c(CNCc3ccc(C)o3)c(C(=O)O)n(Cc3ccccc3C)c2c1", "activation": "inconclusive: 149%"},
      {"smiles": "CC1=C(C(=O)OC2CCCC2)C(c2c(Cl)cccc2Cl)CC(=O)N1", "note": "(stereo not given)", "activation": "active: 82.3%"},
      {"smiles": "N=C1N=C(N)c2cc3ccccc3cc21", "activation": "inconclusive: 155%"},
      {"smiles": "CCc1ccccc1NS(=O)(=O)c1ccc2nc(-c3ccccc3)[nH]c2c1", "activation": "inconclusive: 195%"},
      {"smiles": "Cc1cccc(NC(=O)CSc2ncc(-c3ccccc3)[nH]2)c1C", "activation": "active: 93%"},
      {"smiles": "COc1ccc(C2=C(C)C(N3CCC(C(=O)Nc4ccccc4F)CC3)=NS2(=O)=O)cc1", "activation": "inconclusive: 50%"},
      {"smiles": "Cc1ccc(-n2ncc3c(NC(C)c4ccccc4)ncnc32)cc1", "note": "(stereo not given)", "activation": "inconclusive: 177%"},
      {"smiles": "Cc1ccc(C)c(Cn2c(=O)n(CCCCC(=O)NCc3ccc4c(c3)OCO4)c(=O)c3ccccc32)c1", "activation": "inactive: -27.8%"},
      {"smiles": "CSc1ncc(C(=O)Nc2ccccc2C(F)(F)F)c(-c2ccccc2)n1", "activation": "inconclusive: 53%"},
      {"smiles": "CCCCNC(=O)CSc1nc2n[nH]c(C)c2c(=N)n1-c1cccc(Cl)c1C", "activation": "inconclusive: 52.5%"},
      {"smiles": "COc1ccc(S(=O)(=O)Nc2ccc3oc4c(c3c2)CCCC4)cc1", "activation": "inactive: 5.25%"},
      {"smiles": "CC(=O)CCC(=O)O", "activation": "inconclusive: 58.1%"},
      {"smiles": "CCOC(=O)c1ccc(NC(=O)CSc2nc3cc4ccccc4cc3[nH]2)cc1", "activation": "inconclusive: 57.6%"},
      {"smiles": "CC1=C(C(=O)OCC2CCCCC2)C(c2ccc(Cl)cc2)CC(=O)N1", "note": "(stereo not given)", "activation": "inconclusive: 59.2%"},
      {"smiles": "O=C1N(Cc2ccccc2Cl)c2ccccc2C1(O)c1c[nH]c2ccccc12", "note": "(stereo not given)", "activation": "active: 84.1%"},
      {"smiles": "CSc1ncc(C(=O)Nc2ccc(C)c(Cl)c2)c(-c2ccccc2)n1", "activation": "inactive: -5.14%"},
      {"smiles": "COc1cccc(CNC(=O)Cn2nc(-c3ccc(Cl)cc3)ccc2=O)c1", "activation": "active: 76.2%"},
      {"smiles": "Cc1ccc(NC(=O)c2cc(S(=O)(=O)NCCc3ccc(Cl)cc3)ccc2F)cc1", "activation": "inactive: 36%"},
      {"smiles": "COc1cc(S(=O)(=O)NCCc2c(C)[nH]c3ccccc23)c(C)cc1C", "activation": "active: 78.3%"},
      {"smiles": "CC1CCN(S(=O)(=O)c2nnc(NC(=O)c3cccc(Cl)c3)s2)CC1", "activation": "active: 68.5%"},
      {"smiles": "Cc1ccc(C)c(CN2C(=O)c3ccccc3S(=O)(=O)c3ccc(C(=O)NCCC4=CCCCC4)cc32)c1", "activation": "inconclusive: 55.9%"},
      {"smiles": "Cc1nc2cccnc2n1-c1cccc(C(=O)N2CCN(c3cccc(Cl)c3)CC2)c1", "activation": "inconclusive: 58.1%"},
      {"smiles": "CCOC(=O)c1c(NC(=O)COc2cc(C)ccc2C(C)C)sc(C)c1C", "activation": "inactive: -11%"},
      {"smiles": "Cc1ccc(CS(=O)(=O)c2ncc(Cl)c(C(=O)Nc3nc4ccc(C)cc4s3)n2)cc1", "activation": "active: 70.2%"},
      {"smiles": "CC1CCCCN1S(=O)(=O)c1ccc(C(=O)Nc2sc3c(c2C(N)=O)CC(C)(C)NC3(C)C)cc1", "note": "(stereo not given)", "activation": "inconclusive: 52.1%"},
      {"smiles": "CCCCN1C(=O)C(O)(c2c[nH]c3ccccc23)c2cc(Br)ccc21", "note": "(stereo not given)", "activation": "inconclusive: 126%"},
      {"smiles": "Fc1ccc(-c2cn3cc(Cc4ccccc4Cl)sc3n2)cc1", "activation": "inactive: 27.7%"},
      {"smiles": "CC(=O)Nc1ccc(NS(=O)(=O)c2cc(Br)cc3c2N(C(=O)C2CC2)CC3)cc1", "activation": "inactive: 16.6%"},
      {"smiles": "O=C(Nc1ccc(F)c(Cl)c1)C1CCN(C(=O)c2ccc(F)cc2)CC1", "activation": "inconclusive: 167%"},
      {"smiles": "CCCCOc1ccc(C(=O)Nc2ccc(S(=O)(=O)Nc3nc(C)cc(C)n3)cc2)cc1", "activation": "inconclusive: 199%"},
      {"smiles": "CCCc1ccc(S(=O)(=O)N2CCC(c3nnc(-c4cccc(C)c4)o3)CC2)cc1", "activation": "inactive: -18.4%"},
      {"smiles": "O=C(CCOCCOCCOCCOCCC(=O)Nc1c(I)cc(I)c(C(=O)O)c1I)Nc1c(I)cc(I)c(C(=O)O)c1I", "activation": "inactive: -14.5%"},
      {"smiles": "C#CCn1c(/C=C/c2ccc(Cl)cc2)nc2ccccc21", "activation": "inactive: -18.1%"},
      {"smiles": "COc1cccc(CNC(=O)CN2N=C(c3ccc(C)cc3)CCC2=O)c1", "activation": "inactive: -13.3%"},
      {"smiles": "COC(=O)c1cc2oc3ccccc3c2n1CC(=O)Nc1cc(OC)cc(OC)c1", "activation": "inconclusive: 58%"},
      {"smiles": "Cc1cc2n(n1)CCCN2C(=O)Nc1ccc(Cl)cc1", "activation": "active: 108%"},
      {"smiles": "CC(C)c1nnc(NC(=O)c2nc(SCc3ccc(F)cc3)ncc2Cl)s1", "activation": "active: 109%"},
      {"smiles": "Cc1cccc(CS(=O)(=O)c2ncc(Cl)c(C(=O)Nc3nc4ccc(F)cc4s3)n2)c1", "activation": "inactive: 10.5%"},
      {"smiles": "Cc1ccc(C(=O)Nc2nc3nc(C)cc(=O)n3[nH]2)cc1", "activation": "inconclusive: 52.3%"},
      {"smiles": "O=C(NCCc1csc(-c2ccc(Cl)cc2)n1)c1ccco1", "activation": "inconclusive: 138%"},
      {"smiles": "O=C(Cn1c(SCC(=O)Nc2ccc(F)cc2)nc2ccccc21)NCc1ccc(Cl)cc1", "activation": "inconclusive: 158%"},
      {"smiles": "CCN(C(=O)c1cn(C)c(=O)c2ccccc12)c1cccc(C)c1", "activation": "inactive: 21.1%"},
      {"smiles": "NS(=O)(=O)c1cc(-c2nn[nH]n2)c(NCc2cccs2)cc1Cl", "activation": "inconclusive: 51.8%"},
      {"smiles": "Clc1cccc(-n2ncc3c(Nc4ccc5c(c4)OCCO5)ncnc32)c1", "activation": "inconclusive: 133%"},
      {"smiles": "COc1ccc(C(=O)Nc2ccc3oc(-c4cc(Cl)ccc4Cl)nc3c2)cc1Br", "activation": "inactive: 1.29%"},
      {"smiles": "Cc1cccc(OCC(=O)Nc2ccc(S(=O)(=O)Nc3onc(C)c3C)cc2)c1C", "activation": "inconclusive: 53.3%"},
      {"smiles": "Cc1ccc(-c2nc3cc(NC(=O)Cc4ccc(Cl)cc4)ccc3o2)cc1", "activation": "inactive: -5.3%"},
      {"smiles": "Cc1nc(-c2ccc(S(=O)(=O)NCc3ccc(F)cc3)cc2)co1", "activation": "inconclusive: 50.1%"},
      {"smiles": "O=C(Nc1ccc(Oc2ccccc2)cc1)c1ccc(F)c(S(=O)(=O)N2CCN(c3ccccc3F)CC2)c1", "activation": "inactive: -5.2%"},
      {"smiles": "O=C(Nc1ccc2oc(-c3ccncc3)nc2c1)c1ccccc1Cl", "activation": "inconclusive: 55.1%"},
      {"smiles": "Cc1oc(-c2ccc(Cl)cc2)nc1CSc1nc2ncccc2[nH]1", "activation": "inactive: -1.63%"},
      {"smiles": "Cc1ccc(NC(=O)Cn2cc(S(=O)(=O)c3ccc(F)cc3)c(=O)c3cc4c(cc32)OCO4)cc1", "activation": "inactive: 3.32%"},
      {"smiles": "Cc1ccc(-c2nc3ccccn3c2Nc2c(C)cccc2C)o1", "activation": "inconclusive: 143%"},
      {"smiles": "COc1ccc(NC(=O)c2sc3nc4c(cc3c2N)CN(C(C)C)CC4)c(OC)c1", "activation": "active: 81%"},
      {"smiles": "CCOC(=O)c1cccc(NC(=O)CCc2c(C)nc3cc(-c4ccc(Cl)cc4)nn3c2C)c1", "activation": "inactive: 3.71%"},
      {"smiles": "CCOc1ccc(-n2nc3ccc(NC(=O)COc4ccccc4C)cc3n2)cc1", "activation": "inconclusive: 175%"},
      {"smiles": "Cc1ccc(N(CC(=O)NCc2ccc(OC(C)C)cc2)S(=O)(=O)N(C)C)cc1", "activation": "inconclusive: 56.6%"},
      {"smiles": "CC(=O)c1ccc(NC(=O)c2ccc(NC(=O)CCS(=O)(=O)c3cccs3)cc2)cc1", "activation": "inconclusive: 176%"},
      {"smiles": "COc1ccc(C2CC(=O)c3c(C)nc(N4CCN(C=O)CC4)nc3C2)c(OC)c1", "note": "(stereo not given)", "activation": "inconclusive: 50%"},
      {"smiles": "Cc1ccc(C(=O)Nc2nc(-c3nnn(-c4cccc(Cl)c4C)c3C)ns2)cc1C", "activation": "inactive: 23.1%"}
    ]}
  ]
}
